# Some of the results follow. Antibody binding of pooled human sera (four to six donors per pool; dilution not stated) to peptides of the Trypanosoma cruzi antigen TSSA on microarrays. Quantile-normalised fluorescence in arbitrary units, mean of duplicate arrays; higher = more binding. No active / inactive call. The uninfected pools are read here as the healthy donors of the same country. The strongest signals lie near the top of the scale (about 60,000).
# Assays:
# Test in all cases: antibody binding signal (normalised fluorescence) (arbitrary fluorescence units); higher = stronger serum antibody binding to peptide
# [1] = test system: pooled sera of chronic Chagas disease patients, Argentina
# Procedure: (§1)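 Microarray of 15-residue peptides over residues 30-55 of Trypanosoma cruzi TSSAII, each with 1 to 10 substitutions at naturally variable positions, probed with one serum pool per country.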
# [2] = test system: pooled sera of chronic Chagas disease patients, Bolivia
# Procedure: as §1
# [3] = test system: pooled sera of chronic Chagas disease patients, Brazil
# Procedure: as §1
# [4] = test system: pooled sera of chronic Chagas disease patients, Colombia
# Procedure: as §1
# [5] = test system: pooled sera of chronic Chagas disease patients, Mexico
# Procedure: as §1
# [6] = test system: pooled sera of chronic Chagas disease patients, USA
# Procedure: as §1
# [7] = test system: pooled sera of uninfected people, Argentina
# Procedure: as §1
# [8] = test system: pooled sera of uninfected people, Bolivia
# Procedure: as §1
# [9] = test system: pooled sera of uninfected people, Brazil
# Procedure: as §1
# [10] = test system: pooled sera of uninfected people, Colombia
# Procedure: as §1
# [11] = test system: pooled sera of uninfected people, Mexico
# Procedure: as §1
# [12] = test system: pooled sera of uninfected people, USA
# Procedure: as §1
Sequence,antibody binding signal [1],antibody binding signal [2],antibody binding signal [3],antibody binding signal [4],antibody binding signal [5],antibody binding signal [6],antibody binding signal [7],antibody binding signal [8],antibody binding signal [9],antibody binding signal [10],antibody binding signal [11],antibody binding signal [12]
TENKAATGGAPSPPG,34300,661,3400,577,673,2440,302,165,292,174,155,181
GTDKKPATGEAPSPS,52600,48400,50500,7860,791,40800,978,747,250,316,630,278
STPPSGTDNKTAAGE,41800,41600,45100,1280,17400,25000,918,515,777,217,152,175
TISTPPSGTENKTAA,50900,45800,51700,365,4320,25900,6840,826,703,1070,579,905
TSSTPPSGKENKAAA,17700,3960,9670,914,3650,2520,3600,1130,118,839,126,453
PSGTDKKAAAGEAPS,2570,627,9590,6760,2380,11200,197,512,192,387,1710,250
TDKKPAAGGTPSQSG,473,198,456,6230,315,997,241,773,1860,174,193,359
DKKTATGGAPSQSGA,1070,310,677,2290,911,662,328,359,127,123,457,157
EKKPAAGETPSQPGA,1070,1510,34900,400,286,3230,139,1320,256,628,275,866
STPPSGTENKAAAGE,53400,43700,46600,257,6500,41600,3130,415,266,626,385,405
TISTPPSGTEKKPAA,44300,11500,41700,912,34400,10700,2270,1140,874,328,226,972
SGTENKPAAGGTPSQ,49100,17600,33300,1340,1160,7140,611,1710,1010,477,371,150
GKENKTATGETPSQS,12000,3500,18800,18300,16400,19900,508,266,177,197,279,169
SGTDNKTAAGGTPSP,2280,521,43600,6340,355,1480,164,741,2180,360,1610,265
TPPSGTEKKTATGGA,34800,1690,24200,452,4430,2970,1140,285,159,112,111,249
GKDKKAAAGETPSQS,585,210,416,1590,1250,1450,119,87.3,85.2,130,77.9,97.4
TPPSGTDNKPATGEA,45500,43500,48900,4320,8890,29700,2210,744,460,319,694,525
ISTPPSGKDKKAAAG,7370,303,682,377,29900,636,160,262,112,144,105,121
GKDNKTAAGEAPSQS,3380,5000,5410,6350,4820,7070,271,248,150,262,115,131
KENKAATGEAPSQSG,29800,34000,35400,237,294,25800,269,192,101,155,142,181
KEKKTATGGTPSQSG,312,404,199,1260,202,1240,234,86.8,119,191,126,119
GTDNKAAAGGTPSPP,258,173,27100,2550,234,1050,136,669,2750,509,172,91.9
PSGTDNKTATGEAPS,20300,38000,44500,282,256,21300,162,487,898,232,137,188
TPPSGKDKKTAAGGA,6370,1860,648,2200,37000,837,379,376,188,220,105,180
GTDNKTAAGGTPSPS,1640,249,24100,5090,518,1360,233,690,2770,476,1690,168

Sequence,antibody binding signal [1],antibody binding signal [2],antibody binding signal [3],antibody binding signal [4],antibody binding signal [5],antibody binding signal [6],antibody binding signal [7],antibody binding signal [8],antibody binding signal [9],antibody binding signal [10],antibody binding signal [11],antibody binding signal [12]
ENKPAAGGAPSPSGA,936,3060,4260,2090,460,1050,344,376,305,230,156,284
GTEKKPATGGAPSPS,4050,371,1960,5530,4090,4150,336,1590,534,119,271,1240
DKKPAAGEAPSQSGA,1060,7710,22700,145,234,15500,92.7,161,141,168,81.6,89.1
KDKKTATGEAPSPPG,4410,8860,5060,280,246,13300,193,104,115,94.6,86.6,111
GTDNKAAAGGTPSPS,318,152,28300,3130,308,1130,109,718,2960,552,213,94.4
ENKPAAGETPSPSGA,473,1290,16100,426,347,4440,205,402,194,119,154,447
GTDKKTATGEAPSPP,10800,20200,13300,1190,631,19500,195,167,174,123,163,132
NKPAAGGAPSQSGAS,340,326,7290,1690,975,586,806,1090,499,270,390,1170
KDNKPAAGGAPSPSG,117,222,1180,1170,173,503,484,226,162,155,216,149
NKAATGEAPSQSGAS,14500,41000,39400,190,204,30800,480,797,341,303,557,857
GKDNKPATGETPSPS,35100,18900,32600,1410,1840,26500,414,891,212,271,2020,2190
KEKKPAAGGAPSQPG,201,368,1570,1800,166,218,122,96.8,170,99.8,79.2,330
KEKKPAAGGTPSPPG,156,190,135,1550,142,505,89.8,98.2,561,89.7,72.2,341
PSGKEKKTATGGTPS,4150,893,4660,6560,6820,5780,337,328,195,157,128,99.2
GTENKAAAGGAPSQP,39900,2060,16200,3760,1900,2310,195,372,211,248,151,251
PPSGKEKKAATGGAP,1800,323,1830,1930,3140,3440,401,373,96.2,338,89.4,176
KAAAGGAPSPSGASS,234,223,405,5230,1830,346,211,135,106,106,97.1,186
KDKKAATGEAPSPPG,11800,15200,19200,160,228,17200,251,84.8,128,176,75.1,116
GTDNKTAAGEAPSQS,354,18600,32000,331,318,8270,149,679,1110,144,103,121
TENKAATGGTPSQPG,29000,1180,11500,1220,597,1940,356,155,416,290,1040,255
NKTAAGEAPSQSGAS,494,24200,15400,273,804,5050,455,945,723,255,679,868
SSTPPSGTENKTATG,46300,47100,52100,391,3530,27800,2590,658,428,712,580,600
TDKKPAAGGAPSQSG,409,158,461,5000,318,382,207,736,478,131,115,178
GKDKKAATGGTPSPS,437,259,191,482,779,720,142,84.2,144,303,73.3,98.5
GKENKPATGGAPSPS,4420,1140,10700,6040,8360,13000,909,874,116,145,186,149
